Experimental data from PubChem BioAssay AID686979 (National Center for Advancing Translational Sciences (NCATS), 2013).
In all, about 420,000 compounds went through this assay and about 50,000 (12%) were called active. The shares of active, inactive and inconclusive entries below differ from those in the screen. The call rests on the fitted dose curve; in most records, active means well fitted inhibition curve with a large enough effect; inconclusive means small, poorly fitted or top-dose-only effect; inactive means flat fitted curve, though single readings scatter. No potency is given beside an inconclusive call; the fits are too rough.

Experiment: qHTS for Inhibitors of human tyrosyl-DNA phosphodiesterase 1 (TDP1): qHTS in cells in presence of CPT; further: nearly all actives have a fitted effect of over 55% in size
Details: chicken DT40 Tdp1-/-;hTDP1 cells + 20 nM CPT, ATP luminescence, 48 h; activity change, negative = growth inhibition: at 46.2 µM (top of the series) unless noted
In short: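 Chicken DT40 Tdp1-/- cells stably complemented with human TDP1 were seeded at 400 cells/well in medium containing 20 nM camptothecin, exposed to pin-transferred compounds, and grown at 37 °C for at least 48 hr. Viability was read as ATP luminescence.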
On the % scale 0 is the no-effect control and ±100 the full control effect; potency means the concentration at half of the fitted maximal effect; tags describe the fitted curve by direction and shape.

Question: For `COc1ccc(-c2noc(CN(C)C(=O)CCN3C(=O)[C@H]4CC=CC[C@H]4C3=O)n2)cc1`, which Potency is on record?
Answer: The Potency was inconclusive [inhibitor, single point].

Question: With `O=C(CN1CCOCC1)N1CCCc2c1c(=O)oc1ccc(OCc3ccccc3)cc21` as the molecule, how does the Potency read?
Answer: Its Potency is active: 18.4 µM.

Question: With `COc1ccc(Cl)cc1NCCC(O)c1ccc(F)cc1` (stereo not given) as the molecule, how does the Potency read?
Answer: The Potency was active: 18.4 µM.

Question: For `Oc1ccc(/C=N/n2cnn(Cc3ccccc3Cl)c2=S)c(O)c1`, which Potency is on record?
Answer: Its Potency is inconclusive [inhibitor, single point].

Question: Which “activity change, negative = growth inhibition” value does the source give for `COc1ccc(/C=C/c2nnc(NC(=O)COc3ccc(C)cc3)s2)cc1` here?
Answer: The value was inactive: -31.3%.

Question: For `COc1ccccc1CNC(=O)CCC1N=C2c3ccccc3N=C(SCC(=O)NCC3CCCO3)N2C1=O` (stereo not given), which “activity change, negative = growth inhibition” value is on record?
Answer: Its value is inactive: 1.42%.

Question: With `N#Cc1c(N)nc2c(c1-c1ccccc1)CCC2` as the molecule, how does the “activity change, negative = growth inhibition” value read?
Answer: Its value is inactive: -29.6%.

Question: Which Potency does the source give for `Nc1ccc(O)cc1C(=O)OCC(=O)c1ccc(C2CCCCC2)cc1` here?
Answer: Its Potency is inconclusive [inhibitor, single point].

Question: Which activity change, negative = growth inhibition does the source give for `CCC1CN(CCNC(=O)c2cccc(C(=O)OC)c2)Cc2cc(OC)ccc2O1` (stereo not given) here?
Answer: The activity change, negative = growth inhibition was inactive: 3.97% [at 9.04 µM].

Question: For `Cc1cc(NC(=S)N(CCN2CCCCC2)Cc2ccco2)ccc1Cl`, which Potency is on record?
Answer: The Potency was inconclusive [inhibitor, single point].

Question: For `O=C(c1ccc(S(=O)(=O)Nc2cccc(C(F)(F)F)c2)cc1)N1CCC1`, which Potency is on record?
Answer: Its Potency is inconclusive [inhibitor, single point].

Question: Which Potency does the source give for `CC(C)(C)c1ccc(-c2nnc(-c3ccccc3NC(=O)c3ccc(F)cc3F)o2)cc1` here?
Answer: The Potency was inconclusive [inhibitor, single point].

Question: With `O=C(CC(Sc1ccc(Br)cc1)C(=O)O)c1ccc(F)cc1` (stereo not given) as the molecule, how does the Potency read?
Answer: Its Potency is active: 9.2 µM.

Question: Which Potency does the source give for `CN(CC(=O)Nc1ccc(S(=O)(=O)N2CCOCC2)cc1)Cc1ccc(F)cc1` here?
Answer: The Potency was inconclusive [inhibitor, partial curve, poor fit].

Question: For `c1ccc2c(c1)CCN(c1ncnc3c1[nH]c1ccccc13)C2`, which Potency is on record?
Answer: The Potency was active: 4.61 µM.

Question: With `CCNC(=O)C(=O)Nc1ccc2c(c1)N(S(=O)(=O)c1cccs1)CCC2` as the molecule, how does the Potency read?
Answer: The Potency was inconclusive [inhibitor, single point].

Question: For `CCCCOc1ccc(C(=O)N/C(=C/C=C/c2ccccc2)C(=O)N2CCOCC2)cc1`, which Potency is on record?
Answer: The Potency was inconclusive [inhibitor, single point].

Question: With `COC(=O)c1ccc2nc(-c3ccc(Cl)cc3)c(Cc3ccsc3)n2c1` as the molecule, how does the Potency read?
Answer: The Potency was inconclusive [inhibitor, single point].

Question: Which “activity change, negative = growth inhibition” value does the source give for `CCC(C(=O)Nc1ccc2c(c1)OCCO2)n1c(=O)[nH]c2ccccc2c1=O` (stereo not given) here?
Answer: Its value is inactive: -13.2%.

Question: For `COc1ccc(NS(=O)(=O)c2cc(NC(=O)c3cccc(OCc4c(C)noc4C)c3)ccc2OC)cc1`, which Potency is on record?
Answer: The Potency was inconclusive [inhibitor, single point].
